Measured values published in PubChem BioAssay AID1347073 (National Center for Advancing Translational Sciences (NCATS), 2019).
Screen size: about 45,000 compounds; about 200 (0.44%) were called active. Not shown: some 7% with an inconclusive outcome. The call rests on the fitted dose curve; in most records, active means well fitted activation curve with a large enough effect; inconclusive means small, poorly fitted or top-dose-only effect; inactive means no such curve, though single readings can be large or run the other way. The list shows a part of the results.

test: qHTS of TDP-43 Inhibitors: NCGC Sytravon Library Screen; details: yeast TDP-43 toxicity rescue, BacTiter-Glo growth, 24 h; series mostly up to 46.1 µM; growth rescue (activation): at the top concentration; further: nearly all actives have a fitted effect of over 55% in size; on growth rescue (activation): 0% is about no effect
Outline: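 TDP-43-expressing yeast, pregrown in raffinose, seeded at OD600 0.02 in galactose medium with compound for 24 hr at 30 deg C. Growth read by BacTiter-Glo luminescence, so rescue of toxicity appears as activation.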
Potency means the concentration at half of the fitted maximal effect.

Structure (SMILES)	growth rescue (activation)	Potency
CC1CCCCN1C(=O)CSc1nnc(-c2ccco2)o1 (configuration not stated)	inactive: 6.11%	–
Cc1cc(SCC(=O)c2cccs2)n2nc(C)c(-c3ccc(Cl)cc3)c2n1	inactive: -40%	–
Cc1cccc(C(=O)Nc2cccc(C(=O)N/N=C/c3cccc(C)n3)c2)c1	inactive: 5.41%	–
COc1cccc(-c2cnc3c(NC(C)=O)cc(-c4cccc(C(=O)NCCO)c4)cn23)c1	inactive: -8.75%	–
O=C(c1ccc(S(=O)(=O)NCc2ccco2)cc1)N1CCN(c2ccccc2)CC1	inactive: -9.94%	–
O=C(O)c1ccc(Nc2nc(-c3ccccc3)c3cc(Br)ccc3n2)cc1	inactive: 3.87%	–
O=C(Nc1ccccc1Cl)c1c(F)c(F)c(F)c(F)c1F	inactive: 22.1%	–
CCC1CCCCN1C(=O)COC(=O)c1cc(Br)ccc1Cl (configuration not stated)	inactive: 20.8%	–
COc1ccc(CCC(=O)NCC2CCCCC2)cc1OC	inactive: -7.06%	–
COc1ccc(C(=O)NNC(=O)C(=O)Nc2ccc(C)c(Cl)c2)cc1	inactive: -5.98%	–
CC(=O)c1cccc(-c2ccnc3c2CC(C(=O)Nc2cccc(OC(F)(F)F)c2)O3)c1 (configuration not stated)	–	active: 22.4 µM
O=C(NCCc1ccco1)c1ccc(OCc2cn3ccccc3n2)cc1	inactive: 4.47%	–
Cc1c(Cl)cccc1NC(=S)NCCc1ccc(S(N)(=O)=O)cc1	inactive: -1.87%	–
CCc1nc(SCC(=O)Nc2ccc(N(CC)CC)cc2)n[nH]1	inactive: 5.74%	–
COc1ccc(Cl)cc1NC(=O)c1cc(-c2ccc(C)cc2O)n[nH]1	inactive: 12.5%	–
Nc1nnc(SCC(=O)OCC(=O)c2ccccc2)s1	inactive: 10%	–
CN1CCN(NC(=O)c2cc(S(=O)(=O)N3CCOCC3)c(Cl)cc2Cl)CC1	inactive: 13.8%	–
COc1ccc(-c2csc(NC(=O)c3ccccc3NS(=O)(=O)c3ccc(F)c(F)c3)n2)cc1	inactive: -0.52%	–
CCCCCn1c(=O)[nH]c2cc(C(=O)N3CCN(C(=O)OCC)CC3)ccc2c1=O	inactive: -5.87%	–
COc1c(C)cccc1C(=O)NCCCNC(=O)c1ccc(C)nc1	inactive: 8.05%	–
COCCN(Cc1cc2ccc(C)c(C)c2nc1Cl)C(=O)N1CCOCC1	inactive: 6.74%	–
CCc1nc2ccc(C(=O)NCCCN3CCCC3=O)cn2c1N(C)C(=O)c1cccc(OC)c1	inactive: -7.92%	–

Structure (SMILES)	growth rescue (activation)	Potency
O=C(O/N=C1\CCS(=O)(=O)c2sccc21)C1CC1	inactive: 5.4%	–
CN(C)/C=C1\NC(=S)N(c2ccccc2)C1=O	inactive: -6.24%	–
CCCS(=O)(=O)NC(=O)C1(C)CCN(C(=O)CSc2ccccc2)C1 (configuration not stated)	inactive: 3.13%	–
O=C(NCc1ccccn1)C(=O)NN=C1CCCCCCCCCCC1	inactive: 9.63%	–
C/C(=N\Nc1ncnc2sc(C)c(C)c12)c1ccccn1	inactive: -89.6%	–
Cc1ccnc(NC2CCCCC2)c1	inactive: -4.6%	–
Cc1ccc(OCC(=O)O/N=C(\N)c2ccncc2)c(C)c1	inactive: 28.2%	–
COc1ccc(NC(=O)N2CCCC2C(=O)Nc2ccccc2F)cc1 (configuration not stated)	inactive: 12.1%	–
C=CCn1cnc2scc(-c3ccc(OC)cc3)c2c1=O	inactive: 10.4%	–
O=C(CCc1nc2ccccc2c(=O)[nH]1)OCCOc1ccc(Cl)cc1	inactive: 9.29%	–
CCOc1ccc(-c2cc(C(=O)OC)nc3c2c(=O)n(C)c(=O)n3C)cc1	inactive: -2.64%	–
CCC(C)NC(=O)CCC(=O)Nc1ccc2nc(N3CC(C)CC(C)C3)cc(C)c2c1 (configuration not stated)	inactive: 0.962%	–
COCCCn1c(=O)/c(=C\c2ccc(OC(F)F)c(OC)c2)s/c1=C(/C#N)C(=O)NCCOC	inactive: 25.2%	–
CC(=O)Nc1ccc(NC(=O)C2Cc3c(-c4ccc5c(c4)OCO5)ccnc3O2)cc1 (configuration not stated)	inactive: 8.27%	–
CCCOCC(O)CC(CC)C(=O)NNC(=S)Nc1ccccc1 (configuration not stated)	inactive: -4.04%	–
CCC1(CC)NC(=O)N(CC(=O)Nc2ccc(C)cc2C)C1=O	inactive: 0.404%	–
S=C(NC1CCCC1)N1CCN(c2ncccn2)CC1	inactive: 13.4%	–
CCOc1ccc(NC(=O)C2CCCN(c3nc(C)cc(C)n3)C2)cc1 (configuration not stated)	inactive: 13.7%	–
CCOc1ccccc1NC(=O)NC1(C(=O)NCc2cccnc2)CCCCC1	inactive: 11.3%	–
Cc1ccc2nc(NCC(=O)NN)nc(-c3ccccc3)c2c1	inactive: 19.5%	–
Cc1ccc(S(=O)(=O)C2(S(=O)(=O)c3ccc(C)cc3)CCCC2)cc1	inactive: 27.1%	–
CCN(c1ccccc1)S(=O)(=O)c1ccc(Oc2ccccc2C(C)=O)nc1	inactive: 21.1%	–

Structure (SMILES)	growth rescue (activation)	Potency
COc1ccc(OC)c2c1cc(C(=O)N[C@H](C(=O)N1CCC(C(=O)O)CC1)C(C)C)n2C	inactive: -5.01%	–
O=C(NCCc1ccccc1)/C(=C\c1ccc([N+](=O)[O-])cc1)NC(=O)c1ccccc1	inactive: 36.3%	–
Cc1nc(N2CCC(C)CC2)c2c(C)c(C(=O)Nc3ccc(C)c(F)c3)sc2n1	inactive: 14.2%	–
CCOC(=O)c1ccccc1Nc1cc(C)nc2nc(-c3ccco3)nn12	inactive: 24.1%	–
Cc1csc(NC(=O)c2ccc(-c3ccc(Cl)cc3Cl)o2)n1	inactive: 5.62%	–
CCn1ccnc1CNC(=O)CC1C(=O)NCCN1Cc1ccccc1F (configuration not stated)	inactive: -10.2%	–
COc1cc(NS(=O)(=O)c2cc(C(=O)NCCc3ccccn3)ccc2OC)cc(OC)c1	inactive: 11.2%	–
CCn1c(SCC(=O)N=Nc2c(O)[nH]c3ccccc23)nc2ccccc21	inactive: -2.91%	–
COc1cccc(N2CCN(c3c(C#N)c(C(F)(F)F)nn3C)CC2)c1	inactive: 29.6%	–
O=C1NN(c2ccccc2)C(=O)/C1=C/c1ccc(-c2cccc(C(=O)O)c2)o1	inactive: -11.2%	–
COc1ccc(CN(CC(=O)NC2CCCC2)C(=O)c2csnn2)cc1	inactive: 15.7%	–
CCCc1nnc(SCC(=O)N2CCCC(C)C2)n1CCOC (configuration not stated)	inactive: 1.42%	–
Cc1nnc(SCC(=O)N(C)c2ccccc2)n1Cc1ccccc1	inactive: 0.353%	–
O=C(c1ccc(OC2CCN(C(=O)c3cccnc3)CC2)cc1)N1CCCCCC1	inactive: 2.99%	–
CC(C)Oc1cc(F)ccc1-c1cc(C(=O)Nc2ccccc2)[nH]n1	inactive: -0.934%	–
O=C(C1CCCO1)N1CCN(C(=S)Nc2ccc(Cl)c(Cl)c2)CC1 (configuration not stated)	inactive: 2.37%	–
COc1ccc(-c2cc(C(F)(F)F)n3nc(C(=O)O)c(Cl)c3n2)cc1OC	inactive: 11.2%	–
CC(C)C(c1nnnn1CCc1ccccc1)N1CCN(C(=O)c2ccco2)CC1 (configuration not stated)	inactive: 31.9%	–
COc1cccc(CNC(=O)C2CCN(S(=O)(=O)c3ccc(C)cc3)CC2)c1	inactive: -0.37%	–
CCc1c(C)nc2nc(SCc3ccccc3)[nH]n2c1=O	inactive: -4.62%	–
CCN(CC)S(=O)(=O)N1CCC(C(=O)NCCC2=CCCCC2)CC1	inactive: 15.7%	–
Cn1cc(CN2CCC(n3nccc3NC(=O)c3ccccc3Cl)CC2)cn1	inactive: 3.19%	–

Structure (SMILES)	growth rescue (activation)	Potency
CC(C)CNC(=O)CN1C(=O)NC2(CCCc3ccccc32)C1=O (configuration not stated)	inactive: -2.87%	–
COc1ccc(CN2CCCC(C(=O)c3ccc(SC)cc3)C2)cc1Cn1cccn1 (configuration not stated)	inactive: 5.69%	–
Cc1cc(=O)n2nc(N3CCCC3C(=O)NCCCN3CCCCC3)sc2n1 (configuration not stated)	inactive: 3.75%	–
O=C(NCCCN1CCOCC1)c1cccc(S(=O)(=O)N2CCc3ccccc3C2)c1	inactive: 5.99%	–
CC(C)(C)Nc1c([N+](=O)[O-])c(=O)sc2ccccc12	inactive: 16.1%	–
O=C(O)c1cc(S(=O)(=O)Nc2cccc(Oc3ccccc3)c2)ccc1Br	inactive: 4.57%	–
Cc1cc(Cl)ccc1NC(=O)CN1CCCC1	inactive: 1.91%	–
O=C(CCCN1C(=O)/C(=C/c2ccccc2)SC1=S)Nc1ccc(C(=O)O)c(O)c1	inactive: 3.27%	–
Cc1cccc(NC(=O)NCC2CCN(c3ccc(S(=O)(=O)N4CCOCC4)cc3)CC2)c1	inactive: 11.6%	–
CC(=O)c1cc2c(cc1N/C(=N/S(=O)(=O)c1ccccc1)c1ccc(Cl)cc1)OCO2	inactive: -2.2%	–
CCOc1ccccc1NC(=O)COC(=O)C1CC(=O)N(c2c(C)cccc2C)C1 (configuration not stated)	inactive: -2.79%	–
O=C(CSc1cccc2cccnc12)N/N=C/c1cccnc1	inactive: 15.1%	–
Cc1nc(CN2CCN(C(=O)c3ccc(Br)cc3)CC2)cs1	inactive: 10.4%	–
O=C(Nc1ccon1)c1ccc(S(=O)(=O)N2CCOCC2)cc1	inactive: -18.4%	–
O=C(CCc1ccccc1)NN1C(=O)C2C3C=CC(C3)C2C1=O (configuration not stated)	inactive: -0.636%	–
CCCN(CCC)CC(C)(C)NS(=O)(=O)c1ccc(Cl)cc1	inactive: -7.96%	–
CCn1c(SCC(=O)NC2=NCCS2)nnc1C(C)NC(=O)c1ccccc1Br (configuration not stated)	inactive: 1.1%	–
O=C(O)/C(=C\c1ccc(Br)cc1)NC(=O)c1cccs1	inactive: -20.9%	–
CCC(/C=N/NC(=O)CCCCC(=O)N/N=C/C(CC)CC)CC	inactive: 7.97%	–
CCN(CCO)C(=O)CC1C(=O)NCCN1Cc1c(F)cccc1Cl (configuration not stated)	inactive: 3.11%	–
COc1cc2nc(Nc3ccc(C)c(Cl)c3)nc(N)c2cc1OC	inactive: 13.6%	–
CCN(CC)c1ncnc2c1ncn2[C@H]1CN(Cc2ccc(Cl)cc2)C[C@@H](CO)O1	inactive: 4.75%	–

Structure (SMILES)	growth rescue (activation)	Potency
Cc1ccccc1OCc1n(CC(=O)OC2CC(C)CCC2C(C)C)c2ccccc2[n+]1C (configuration not stated)	inactive: -1.63%	–
CCCn1c(SCC(=O)NCc2ccc(C)cc2)n[nH]c1=O	inactive: 12.1%	–
CC1(C(=O)NCc2cccc3ccccc23)CCN1Cc1ccccc1OC(F)F (configuration not stated)	inactive: -4.03%	–
Cc1cc(NC(=O)c2cc3ccccc3o2)no1	inactive: -2.59%	–
Cc1nc2c(o1)CCc1ccccc1C2N1CCN(C)CC1 (configuration not stated)	–	inactive
Cc1nc2cc3c(cc2c(C)c1C(=O)OC(C)C)OCO3	inactive: -2.14%	–
CNC(=O)COC(=O)c1ccc(Cl)c(S(=O)(=O)N2CCCC2)c1	inactive: -9.45%	–
S=c1[nH]nc(COc2cccc(Cl)c2)n1Cc1ccccc1	inactive: 26.2%	–
COc1ccccc1-c1ccc2c(c1)C(C)(Cc1ccc(OC(F)(F)F)cc1)C(=O)N2 (configuration not stated)	inactive: -2.43%	–
Cc1ccc(NC(=O)Cc2nc(COC(=O)c3c(F)cccc3Cl)cs2)cc1	inactive: 18.5%	–
Cc1cccc(-n2c(Cc3ccccc3)n[nH]c2=S)c1	inactive: 11.2%	–
Cc1cc(C(=O)NC2CCCC2)c2ccccc2n1	inactive: -0.0302%	–
Cc1ccc(C)c(SCC(=O)Nc2cccc(S(=O)(=O)N3CCOCC3)c2)c1	inactive: 14.8%	–
O=C(CCn1nnc2ccccc2c1=O)N[C@@H](Cc1c[nH]c2ccccc12)C(=O)O	inactive: -8.31%	–
C/C(=N/NC(=O)CN1CCN(Cc2ccccc2Cl)CC1)c1ccco1	inactive: 12.6%	–
Cc1ccc(-c2cc(C(=O)Nc3cccnc3)[nH]n2)c(O)c1C	inactive: 5.66%	–
CCNC(=S)Nc1cc(OCC)c(NC(=O)c2cccs2)cc1OCC	inactive: 12%	–
Cc1c(C(=O)c2ccc(F)cc2)c2ccccn2c1CCc1ccccn1	inactive: 5.62%	–
COCCN(C(=O)c1csnn1)C(C(=O)NC1CCCCC1)c1ccccc1F (configuration not stated)	inactive: -0.138%	–
